Experimental data reported in PubChem BioAssay AID602332 (National Center for Advancing Translational Sciences (NCATS), 2012).
Among all 420,000 compounds or so, about 75 (0.02%) were called active. Inconclusive results, whose numbers are uncertain, are shown with a selection of clear calls. Calls come from the whole dose curve; as a rule, active = well fitted activation curve with a large enough effect; inconclusive = small, poorly fitted or top-dose-only effect; inactive = no such curve, though single readings can be large or run the other way. Potencies of inconclusive entries are doubtful fits and often do not repeat. Some compounds were tested as several samples or in several runs, with calls that do not always agree.

assay: qHTS for Inducers of the Endoplasmic Reticulum Stress Response (ERSR) in Human Glioma: qHTS; settings: U87-MG GRP78 promoter luciferase reporter, 16 h; activation: stronger effect = higher value; note: nearly all actives have a fitted effect of over 35% in size; for activation: % of control where 0% means no effect
From the text: Primary protein unfolding takes place for many diseases, including diabetes and hypoxia, , and triggers a reaction in the cells called ER stress response (ERSR). ). ERSR is designed as a repair mechanism, but ultimately leads to cell death via apoptosis if conditions triggering protein unfolding persist (1). The molecular clue to ERSR activation is the enhancement of the expression of key molecular chaperones, including the glucose regulated protein (GRP) 78. GRP78 is the main sensor for protein folding and the main actuator of the ERSR.
In a collaboration between the Southern Research Institute and the NIH Chemical Genomics Center, a cell based screen was developed that reliably uses GRP78 as a sensor to identify small molecules as inducers of ERSR. In resting conditions, GRP78 binds proteins and acts as a natural repressor. Once unfolded proteins are present in the ER, GRP78 releases some of the repressors and binds to the unfolded proteins. The release of the repressors executes the ERSR program. Using a human glioma cell line in a miniaturized, luminescent format, a high-throughput screen was developed to identify actuators of the ERSR.
(1) Soboloff, J. and S. A. Berger (2002). "Sustained ER Ca2+ depletion suppresses protein synthesis and induces activation-enhanced cell death in mast cells." J Biol Chem 277(16): 13812-20.
NIH Chemical Genomics Center [NCGC]
NIH Molecular Libraries Probe Centers Network [MLPCN]
Assay Submitter (PI): Maurizio Grimaldi, Southern Research Institute
Stable transfected human glioma cell line, U87-MG, are dispensed at density 1000 cells/well into Greiner white solid bottom 1536-well assay plates. Compounds are transferred via Kalypsys pin tool equipped with 1536-pin array (10nl slotted pins, V&P Scientific, San Diego, CA). The assay plates will be incubated for 16 hours and developed by adding appropriate quantities of the Promega Bright Glo reagent. The plates will be incubated at room temperature for 10 minutes prior to being transferred into a ViewLux high-throughput CCD imager (PerkinElmer), wherein end-point measurements of luminescence are acquired.
Potency is the fitted concentration of half-maximal effect; tags give direction and shape of the fitted curve.

Structure (SMILES)	activation	Potency
C[n+]1c(-c2ccccc2)cc(CCCCc2cc(-c3ccccc3)[n+](C)c(-c3ccccc3)c2)cc1-c1ccccc1	inactive: -3.96%	–
N#CSCC(=O)N1c2ccccc2CCc2ccccc21	–	inconclusive: 20 µM [activator, single point]
COC(=O)C1=C(c2ccc(C(C)=O)cc2)C[C@@H]2CC[C@H]1N2C(=O)N1CCC(C)CC1	inactive: -0.845%	–
Cc1ccc2c(Cl)cc(Cl)c(O)c2n1	–	active: 28.2 µM
C/C1=C/C(=O)O[C@@H]2C[C@@H](CC[C@H](C)/C=C\CC1)O[C@@](O)(C1CSC(=O)N1)C2 (stereo not given in full)	–	inconclusive: 15.8 µM [activator, single point]
CCCCCn1c(=O)c(C(=O)Nc2ccccc2Cl)c(O)c2ccccc21	–	inconclusive: 14.1 µM [activator, single point]
CC(=O)O.CC(=O)O.[Cd]	–	inconclusive: 12.6 µM [activator, single point]
CCCCCCN=C(C)c1c(O)n(CCCC)c(=O)[nH]c1=O	–	inconclusive: 28.2 µM [activator, single point]
Cc1cc(/C=C2\C(=O)NC(=O)N(c3ccc(Cl)cc3)C2=O)c(C)n1-c1sc2c(c1C#N)CCCC2	–	inconclusive: 50.1 µM [activator, partial curve, poor fit]
O=NN(CCCl)C(=O)NC1CCCCC1	–	inconclusive: 63.1 µM [activator, single point]
CCOc1ccc(-n2c(O)c(N=Nc3ccc([N+](=O)[O-])cc3)c(=O)[nH]c2=O)cc1	–	inconclusive: 15.8 µM [activator, single point]
Cc1nn(-c2ccccc2)c(Cl)c1C1C(C#N)=C(N)Oc2c1c(=O)oc1ccccc21 (stereo not given)	–	inconclusive: 50.1 µM [activator, single point]
CN(C)c1ccc(/C=C/C=C2/C(=O)NC(=O)N(c3ccccc3)C2=O)cc1	–	inconclusive: 50.1 µM [activator, partial curve, poor fit]
O=C1NC(=O)N(Cc2ccco2)C(=O)/C1=C/c1cccn1CCOc1ccccc1Cl	–	inconclusive: 44.7 µM [activator, single point]
Cn1c(O)c(C=NC2CC3CCC2(C)C3(C)C)c(=O)[nH]c1=O (stereo not given)	inactive: -5.68%	–
COC(=O)COc1ccc(C[C@@H](C)NC[C@H](O)c2cccc(Cl)c2)cc1	–	inconclusive: 14.1 µM [activator, single point]
O=C(Cn1c(=O)n(CC2CS2)c2ccccc21)N1CCCCC1 (stereo not given)	–	inconclusive: 44.7 µM [activator, partial curve, poor fit]
C/C(O)=C(\C#N)C(=O)Nc1cc(Br)ccc1Br	–	inconclusive: 46.5 µM [activator, partial curve, poor fit]
O=c1cc(-c2ccc(O)c(O)c2)oc2cc(O)cc(O)c12	–	inconclusive: 12.6 µM [activator, full curve, poor fit]
COc1ccc(OC)c(C(O)C(C)N)c1 (stereo not given)	–	inconclusive: 14.7 µM [activator, partial curve, poor fit]

Structure (SMILES)	activation	Potency
O=C1NC(=O)N(Cc2ccccc2)C(=O)/C1=C\C=C\c1ccco1	–	inconclusive: 44.7 µM [activator, single point]
O=C(NC1(C(F)(F)F)Oc2ccccc2O1)N1CCC2(CC1)OCCO2	–	inconclusive: 14.1 µM [activator, partial curve, poor fit]
O=C(CNS(=O)(=O)c1ccc(Br)s1)N1CCC2(CC1)OCCO2	–	inconclusive: 14.1 µM [activator, single point]
CC1(O)CCN2C(=O)CCc3cccc1c32 (stereo not given)	inactive: -2.32%	–
COC(=O)c1c(C)n(Cc2ccccc2)c2ccc(O)cc12	inactive: 0.803%	–
O=C(N/N=C1/CN2CCC1CC2)c1cccc(O)c1	inactive: -0.212%	–
Clc1cccc(Cl)c1Cn1nnc(N2CCCC2)n1	–	inconclusive: 11.2 µM [activator, single point]
CC1CCCC(NC(=O)COC(=O)c2cn(C)c3ccccc23)C1C (stereo not given)	inactive: -2.97%	–
C=CCN1C(=O)NC(=O)/C(=C/c2cc3c4c(c2)CCCN4CCC3)C1=O	inactive: 1.61%	–
C=C[C@H]1CN2CC[C@H]1C[C@H]2c1[nH]c2ccccc2c1CCO	inconclusive: 82.5% [activator]	–
CCOC(=O)Cn1c(=O)oc2cc(S(=O)(=O)NC3CCCc4ccccc43)ccc21 (stereo not given)	–	inconclusive: 44.7 µM [activator, partial curve, poor fit]
O=C1NC(=O)N(CCc2ccc(F)cc2)C(=O)/C1=C/C=C/c1ccccc1	–	inconclusive: 50.1 µM [activator, single point]
CCSc1cc(C2C(C#N)=C(N)Oc3n[nH]c(C)c32)c(C)o1 (stereo not given)	–	inconclusive: 28.2 µM [activator, single point]
CCCCC/C=C\C/C=C\C/C=C\C/C=C\CCCC(=O)O	–	inconclusive: 50.1 µM [activator, single point]
CC(C)(c1ccc(OC[C@@H]2CO2)cc1)c1ccc(OC[C@H]2CO2)cc1	–	inconclusive: 50.1 µM [activator, single point]
CCCCCCCCCCCC[N+](C)(C)CCOc1ccccc1	inactive: -10.2%	–
C=C(C)[C@@]12OC3(c4ccccc4)O[C@@H]1[C@@H]1[C@@H]4O[C@]4(CO)[C@@H](O)[C@]4(O)C(=O)C(C)=C[C@H]4[C@@]1(O3)[C@H](C)[C@H]2OC(=O)/C=C/C=C/c1ccccc1	–	inconclusive: 31.6 µM [activator, partial curve, poor fit]
CC(C)c1ccc(N2C(=O)NC(=O)/C(=C/C=C/c3ccco3)C2=O)cc1	–	inconclusive: 28.2 µM [activator, single point]
O=c1c(O)c(-c2ccc(O)c(O)c2)oc2c(O)c(O)cc(O)c12	inactive: -4.37%	–
C=C(C)[C@]12C[C@@H](C)[C@@]34O[C@](Cc5ccccc5)(O[C@@H]1[C@@H]3C=C(COC(=O)Cc1ccc(O)c(OC)c1)C[C@]1(O)C(=O)C(C)=C[C@@H]41)O2	–	inconclusive: 25.1 µM [activator, full curve, poor fit]
